The chains are these.
B1: LINE1-mini (parent)
chain: GGCAGAGCUCAACACAGCGUGGCAAAGUGGCUGUGGCUAGACUGCC

Read counts are not given, so values of variants with three or more changes are uncertain.

The variants in this series derive from B1. Nature of the series: self-cleavage, relative activity (ratio to wild type); higher = more cleavage; in vitro, sequencing; the parent is a self-cleaving ribozyme.
As to GGCAGAGCUUAUCACAGCGUGGCAAAGUGGCUGUGGCGUGACUGCC, the self-cleavage turned out to be 0.05.
For the variant GGCAGAGCUUAACACAGCGUGGCAAUGUGGCUGUGACUAGACUGCC, the self-cleavage was 0.04.
As for GGCAGAGCUUAGCACAGCGUGGAAAAGUGGCUGUGGCUAGACUUCC, the figure is 0.03; as for GGCAGAGCUUAUCACAGCGUGGAAAAGUGGCUGUGGCUAGUCUGCC, 0.04.
As for GGCAGAGCUUAGCAUAGCGUGGCAAAGUGGCUGUGUCUAGACUGCC, the self-cleavage is 0.02.
As for GGCAGAGCUUAACACGGCGUGACAUAGUGGCUGUGGCUAGACUGCC, the figure is 0.41; as for GGCAGAGCUUAACACCGCGUGGCAAAGUGGCUGUGGCUCGAAUGCC, 0.02; as for GGCAGAGCUUAACACAGCGUGGCCAAGUGGCUGGGGCUAGACUGCC, 0.06.
With GGCAGAGCUUAACACAGCGUGGCACAGUGGCUUUGGCUCGCCUGCC, the self-cleavage was found to be 0.03.
As for GGCAGAGCUUAUCACAGCGAGGCAAGGUGGCUGUGGCUAGACAGCC, the figure is 0.02; as for GGCAGAGCUUAACACAGCGUGGCAACGUGGCUAUGGCUAUACUGCC, 0.01; as for GGCAGAGCUUAACACAGCGUGGCACAGUGGCGGUGGCUAGACUGCC, 0.18.
As for GGCAGAGCUUAACAGAGCGUAGCAAAAGGGCUGUGACCAGAAUGCC, the figure is 0; as for GGCAGAGCUUAAAGCAGCGUGGCAAAGUGGCUGUGGCUAGACUGCC, 0.02.
On to GGCAGAGCUUAGCACAUCGUGGCAAAGUGGCUGUGGCUAGACUGCC, for which the self-cleavage was determined as 0.04.
For GGCAGAGCUUAACAGAGCGUGGCAAAGUGGCUUUGGCUGGACUGCC the value was 0.02.
As for GGCAGAGCUUAACAAAGCGUGACAAAGUGGCUGUGGCUAAACUACC, the figure is 0.02; as for GGCAGAGCUUAACAACGCGUCGCAAAGUGGCUGUGGCUAGACUGCC, 0.05.
For GGCAGAGCUUAUUACAGCGUGGCAAAGUGGCUGUGGCUAGAUUGCA the value was 0.02.
For the variant GGCAGAGCUUAACAAAGCGUGGCAAAGUGGCUGUGGCUAGUCUGCC, the self-cleavage is 0.04.
For the variant GGCAGAGCUUAACACAGCGUGGCAAAGUGGCUGUGGCUAGCCUGAC, the self-cleavage was 0.04.
In the case of GGCAGAGCUUAACACAGCGUGGCACAGUGGCUGUGGCUAGGCUGCC, the self-cleavage amounted to 0.01.
As for GGCAGAGCUUAACGCAGCGUUGCAACGUGGGUGUGGCUAGACUGCC, the figure is 0.01; as for GGCAGAGCUUAAGACAGCGUGGUAAAGUGGCUGUGGCUAGACUGCC, 0.17; as for GGCAGAGCUUAACACGGCGACGCAAGGUGACUGUGCCGAGACUGCC, 0.
As to GGCAGAGCUUAACGCAUCGUGGCAAAGUGGUUGUGGCUAGACUGAC, the self-cleavage amounted to 0.03.
As for GGCAGAGCUUAACACAGCGUGGCAGAGUGGCUGUGGCUACACUGCC, the figure is 0.02; as for GGCAGAGCUUAAGAGAGCGCGGCAAAGCGGCUGUGGCUAGACUGCC, 0.04; as for GGCAGAGCUUAAUACAGCGUGGCAAAGUGGCUCUGGCUAGACUGCG, 0.01.
For the variant GGCAGAGCUUAACUCAGCGUGGCAAAGUGGCUGAGGCUAGACUGCC, the self-cleavage is 0.43.
As for GGCAGAGCUUAACAGAGCGUGGAAAUGUGGCUUUGGCUAAACUGCC, the figure is 0.03; as for GGCAGAGCUUAACUCAGCGUGGCAAAGUGGCUGUGGCUAGAUUGCC, 0.03.
In the case of GGCAGAGCUUAACUCAGCGUGGCAAAGUGGCUGUGGUUAGACUGAC, the self-cleavage was determined as 0.07.
Turning to GGCAGAGCUUAUCACAGCGUGGCAAAGUGGCUGUGGCUAGCCUGCA, the self-cleavage amounted to 0.01.
Turning to GGCAGAGCUUAACACAGCGUGGCAUAGUGCCUGUGGCUAGACUGCC, the self-cleavage was determined as 0.13.
As for GGCAGAGCUUAAAACAGCGUGGCAAAGCGGCUGUGGCUAGACUUCC, the figure is 0.02; as for GGCAGAGCUUAGCACAGCGUGGCAAAGUGGCUGUGGCUAGAGUGCC, 0.02.
As for GGCAGAGCUUAACACAGCGUGGCAAUGUGGCAGUGGCUAGACUGCC, the figure is 0.04; as for GGCAGAGCUUAACAAAGCGUGGCAAAGUUGCUGUGGCUAGACUGAC, 0.07.
As for GGCAGAGCUUAACACAGCGUGGCAAUGUUGCUGUGGCUAGACUGCC, the figure is 0.06.
With GGCAGAGCUUAGCACUGCGUUGCAAAGUGGCUGUGGCUAGACUGAC, the self-cleavage stood at 0.03.
As for GGCAGAGCUUAACAAAGCGUGGAAAUGUGGCUGUGGCUAGACUGCC, the figure is 0.01.
With GGCAGAGCUUAAGACAGCGUCGCACAGUGGCUCUGGCUAGACUUCC, the self-cleavage was 0.01.
Turning to GGCAGAGCUUAACACAGCGUGGCAACGGGGCUGGGGCUAGACUGCC, the self-cleavage was 0.08.
In the case of GGCAGAGCUUAACACAGCGUGGCGAAGGGGCUGUGGCUAGACUGCC, the self-cleavage stood at 0.15.
As for GGCAGAGCUUAAAACAGCGUGGCAAAGUGGCUGUGGGUAGACUGCC, the figure is 0.05; as for GGCAGAGCUUAACACAGCGUGGCAAAGUGGCUGUGGCUGGACUGGC, 0.04; as for GGCAGAGCUUAAAACAGCGUGGCGAAGUGGCUGUGGCUAGACUGCC, 0.01.
On to GGCAGAGCUUAAUACAGCGUGGCAAAGUGGCUGUGGCUGGACUGCC, for which the self-cleavage turned out to be 0.17.
As for GGCAGAGCUUAACACCGCGUGGCAAAGUGGCUGUGGCUAGGCUGCC, the figure is 0.03.
Regarding GGCAGAGCUUAACACGGAGUGGCAAAGUGGCUGUGGCUAGAAUGCC, the self-cleavage was determined as 0.02.
For the variant GGCAGAGCUUAACACAGCGUGGCAACGUGGCUGUGGCUAGACUGAC, the self-cleavage was found to be 1.18.
In the case of GGCAGAGCUUAGCACAGCGUGGCAAAGUGGCUGUGGCUAGACUACC, the self-cleavage was determined as 0.01.
With GGCAGAGCUUAGCACAGCGUGGCAAAGUGGCUGUGGCUAGACUUCC, the self-cleavage came out at 0.
As for GGCAGAGCUUAAUACAGCAUGGCAAAGUGGCUCUGGCCAAACGGCC, the self-cleavage was determined as 0.01.
As to GGCAGAGCUUAGCACAGCGUGGCAAAGUGGCUGUGUCUAGACGGCC, the self-cleavage was 0.01.

The record behind these values is the RNAGym collection of RNA variant scans (doi:10.7554/elife.90254).
